Measured values from the supplement of paper PMC10126150.
Values marked as one replicate rest on one cluster of the flow cell; about a third of the high ones do not repeat.
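Further: ATP exposure 15 min at 22 °C before imaging.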

These sequences were tested on ATP (assay: switch fluorescence ratio, 500 uM ATP over buffer (Cy3 cluster intensity, sum of 5 cycles each) (fold (ratio)); higher = stronger signal-on switching upon ATP binding; sequences stand for … in TCGTCGGCAGCGTCAGATGTGTATAAGAGACAGTTTTTTTTTTTTTTTTTTTTTTTTT…TC). Details: aptamer strand: ATP DNA aptamer (quencher-CACCTGGGGGAGTATTGCGGAGGAAGG + anchor), 100 nM annealed; ATP concentration: 500 uM; one replicate.
Procedure, shortened: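 Between each of five buffer/ATP cycles, the flow-cell was stripped with NaOH and re-annealed. Each cycle imaged Cy3-labelled switching-strand clusters, annealed to 100 nM quencher-labelled ATP aptamer on a modified Illumina MiSeq flow-cell, first in selection buffer and then after 15 min with 500 uM ATP at 22 °C. The fluorescence ratio is summed target-cycle over summed buffer-cycle Cy3 intensity per cluster, averaged per switch-domain sequence, with clusters outside 100-1000 RFU excluded.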
AGATCTGAGG showed a switch fluorescence ratio of 1.03. AGATCTGGCG gave a switch fluorescence ratio of 1.03. With AGATCTTAGG the switch fluorescence ratio was 0.976. For AGATCTTCTC, the switch fluorescence ratio was 0.985. With AGATCTTTAA the switch fluorescence ratio was 1.03. Work on AGATGAAGGG yielded a switch fluorescence ratio of 0.961. Sequence AGATGACACA has a switch fluorescence ratio of 1.02. Sequence AGATGATGCT has a switch fluorescence ratio of 1. With AGATGCACGG the switch fluorescence ratio was 1.08. With AGATGCGGG the switch fluorescence ratio was 1.01. For AGATGCTCAG, the switch fluorescence ratio was 1.01. In the case of AGATGGAAGC, the switch fluorescence ratio is reported as 0.971. In the case of AGATGGTTG, the switch fluorescence ratio is reported as 0.95. For AGATGTTTG, the switch fluorescence ratio was 1.04. Work on AGATTAAAA yielded a switch fluorescence ratio of 1.02. For AGATTACCAG, the switch fluorescence ratio was 1.04. Work on AGATTACT yielded a switch fluorescence ratio of 0.966. In the case of AGATTATCCA, the switch fluorescence ratio is reported as 1.03. Sequence AGATTATTAC has a switch fluorescence ratio of 1.01. AGATTCCGTA gave a switch fluorescence ratio of 0.966. With AGATTCTAGC the switch fluorescence ratio was 1. Work on AGATTGATTA yielded a switch fluorescence ratio of 0.991. Sequence AGATTGCTGG has a switch fluorescence ratio of 0.976. Sequence AGATTTAAGG has a switch fluorescence ratio of 1. In the case of AGATTTAGTG, the switch fluorescence ratio is reported as 0.992. In the case of AGCAAATAT, the switch fluorescence ratio is reported as 1.52. With AGCAAATCGG the switch fluorescence ratio was 1.05. In the case of AGCAAATGGA, the switch fluorescence ratio is reported as 1.06. With AGCAAATGTG the switch fluorescence ratio was 0.997. In the case of AGCAACGGCT, the switch fluorescence ratio is reported as 1.04. In the case of AGCAATTTGG, the switch fluorescence ratio is reported as 1.17. AGCACTCTGA showed a switch fluorescence ratio of 1.05. AGCACTGTCG was tested, and the switch fluorescence ratio was 0.917. Work on AGCACTTCCA yielded a switch fluorescence ratio of 1.03. Sequence AGCAGATAAA has a switch fluorescence ratio of 0.955. In the case of AGCAGCCGTG, the switch fluorescence ratio is reported as 1.02. AGCAGCTCTG gave a switch fluorescence ratio of 0.972. Work on AGCAGGCCCG yielded a switch fluorescence ratio of 0.925. For AGCAGGCTTC, the switch fluorescence ratio was 1.04. Work on AGCAGTAAGG yielded a switch fluorescence ratio of 1.03. Sequence AGCATAAGA has a switch fluorescence ratio of 0.995. Work on AGCATCTAGG yielded a switch fluorescence ratio of 0.949. Work on AGCATCTGCT yielded a switch fluorescence ratio of 1. For AGCATCTTGA, the switch fluorescence ratio was 0.975. Work on AGCATTCATT yielded a switch fluorescence ratio of 0.957. Sequence AGCATTGAAA has a switch fluorescence ratio of 1. Work on AGCATTGGC yielded a switch fluorescence ratio of 0.988. Sequence AGCATTTGG has a switch fluorescence ratio of 1. For AGCATTTGTT, the switch fluorescence ratio was 1.01. Sequence AGCCAACTCC has a switch fluorescence ratio of 2.11. With AGCCACGCTT the switch fluorescence ratio was 0.962. Work on AGCCAGACAA yielded a switch fluorescence ratio of 1.03. AGCCAGACCG was tested, and the switch fluorescence ratio was 1.01. AGCCAGGAGG was tested, and the switch fluorescence ratio was 0.995. In the case of AGCCAGTGAG, the switch fluorescence ratio is reported as 1.04. In the case of AGCCATGGAC, the switch fluorescence ratio is reported as 1.02. AGCCCCGCCT showed a switch fluorescence ratio of 1.53. AGCCCGGATT was tested, and the switch fluorescence ratio was 0.996. For AGCCCGTGCG, the switch fluorescence ratio was 1.05. With AGCCGCGGTG the switch fluorescence ratio was 1. Work on AGCCGGGGAT yielded a switch fluorescence ratio of 0.961. With AGCCGGGTTG the switch fluorescence ratio was 1.04. AGCCGGTAAT showed a switch fluorescence ratio of 1.02. AGCCGGTAGT was tested, and the switch fluorescence ratio was 1.01. AGCCGTCGAA gave a switch fluorescence ratio of 1.02. Work on AGCCTATGGG yielded a switch fluorescence ratio of 1.01. AGCCTGCTGG showed a switch fluorescence ratio of 1.01. AGCCTGCTTA showed a switch fluorescence ratio of 0.995. AGCCTTATCA gave a switch fluorescence ratio of 1.03. In the case of AGCGACAAAT, the switch fluorescence ratio is reported as 0.97. AGCGACCACC gave a switch fluorescence ratio of 1.26. Work on AGCGACCCAC yielded a switch fluorescence ratio of 1.5. Sequence AGCGACCGGC has a switch fluorescence ratio of 1.01. AGCGAGCAC showed a switch fluorescence ratio of 1.1. Sequence AGCGAGCCCA has a switch fluorescence ratio of 0.965. In the case of AGCGAGGCTC, the switch fluorescence ratio is reported as 1.18. AGCGAGTCGG gave a switch fluorescence ratio of 1.03. Sequence AGCGATAGTG has a switch fluorescence ratio of 1.07. AGCGCATCTC was tested, and the switch fluorescence ratio was 0.98. AGCGCCGAGC gave a switch fluorescence ratio of 0.997. Work on AGCGCGCAGT yielded a switch fluorescence ratio of 1.04. AGCGCGCTA was tested, and the switch fluorescence ratio was 1.03. With AGCGCGCTTT the switch fluorescence ratio was 1.03. For AGCGCGTGTA, the switch fluorescence ratio was 0.983. With AGCGCGTTG the switch fluorescence ratio was 1.01. With AGCGCTACAG the switch fluorescence ratio was 1.02. Work on AGCGCTAGAA yielded a switch fluorescence ratio of 0.997. AGCGGAGGAT gave a switch fluorescence ratio of 1.02. With AGCGGCAAG the switch fluorescence ratio was 0.984. Work on AGCGGCATCA yielded a switch fluorescence ratio of 0.998. Work on AGCGGTGCAG yielded a switch fluorescence ratio of 0.978. In the case of AGCGGTTTTT, the switch fluorescence ratio is reported as 1. AGCGTAAGGA showed a switch fluorescence ratio of 1.01. For AGCGTCAGTT, the switch fluorescence ratio was 1.03. In the case of AGCGTCATGG, the switch fluorescence ratio is reported as 1.04. AGCGTGACTA showed a switch fluorescence ratio of 0.993. Sequence AGCGTGATGA has a switch fluorescence ratio of 1.01. In the case of AGCGTGATGT, the switch fluorescence ratio is reported as 1.03. AGCGTTACCG gave a switch fluorescence ratio of 1. In the case of AGCGTTTTGC, the switch fluorescence ratio is reported as 0.941. AGCTACCAGG gave a switch fluorescence ratio of 1.49. Work on AGCTACCGCT yielded a switch fluorescence ratio of 0.951. For AGCTACTTTA, the switch fluorescence ratio was 1.09. With AGCTAGAGGT the switch fluorescence ratio was 0.988. AGCTATCGAT was tested, and the switch fluorescence ratio was 0.944. Sequence AGCTATGTGC has a switch fluorescence ratio of 0.993. With AGCTATTTA the switch fluorescence ratio was 0.965. For AGCTATTTTC, the switch fluorescence ratio was 1.02. With AGCTCGGAGC the switch fluorescence ratio was 0.981. In the case of AGCTCGTTC, the switch fluorescence ratio is reported as 1.01. In the case of AGCTCTATGG, the switch fluorescence ratio is reported as 0.986. With AGCTCTCTAG the switch fluorescence ratio was 0.999. With AGCTGAATAT the switch fluorescence ratio was 0.984. AGCTGAGAA gave a switch fluorescence ratio of 1.03. Sequence AGCTGAGAGT has a switch fluorescence ratio of 0.972. In the case of AGCTGCAAAT, the switch fluorescence ratio is reported as 1.02. For AGCTGCAGAG, the switch fluorescence ratio was 1.01. In the case of AGCTGCCGGG, the switch fluorescence ratio is reported as 0.99. Work on AGCTGGACGC yielded a switch fluorescence ratio of 0.992. With AGCTGGCCGC the switch fluorescence ratio was 1.03. Work on AGCTGGCTGG yielded a switch fluorescence ratio of 1.01. AGCTGTGAAG gave a switch fluorescence ratio of 1.05. In the case of AGCTGTGGTC, the switch fluorescence ratio is reported as 1.04. AGCTTACTAA gave a switch fluorescence ratio of 0.996. In the case of AGCTTAGGAC, the switch fluorescence ratio is reported as 1.01. AGCTTCT was tested, and the switch fluorescence ratio was 1.01. Sequence AGCTTCTTCT has a switch fluorescence ratio of 1.05. In the case of AGCTTGAATG, the switch fluorescence ratio is reported as 1.01. AGCTTGCAGA was tested, and the switch fluorescence ratio was 0.968. For AGCTTGCGCA, the switch fluorescence ratio was 0.973. In the case of AGCTTTAACT, the switch fluorescence ratio is reported as 1.04. Sequence AGCTTTCGAG has a switch fluorescence ratio of 1.09. AGCTTTT gave a switch fluorescence ratio of 1.04. With AGCTTTTCTC the switch fluorescence ratio was 1.02. Work on AGCTTTTTCA yielded a switch fluorescence ratio of 1.06. For AGGAAACCGC, the switch fluorescence ratio was 1.06. With AGGAACCGTA the switch fluorescence ratio was 1.15. In the case of AGGAACGAGT, the switch fluorescence ratio is reported as 0.915. AGGAAGAAGA gave a switch fluorescence ratio of 0.998. With AGGAAGGTCT the switch fluorescence ratio was 0.973. For AGGAATTGCG, the switch fluorescence ratio was 0.978. AGGACAGTAA gave a switch fluorescence ratio of 1.05. AGGACCATAA showed a switch fluorescence ratio of 1.03. For AGGACTGCAA, the switch fluorescence ratio was 2.07. Sequence AGGAGAGTCG has a switch fluorescence ratio of 0.973. AGGAGATTAA showed a switch fluorescence ratio of 1.07. For AGGAGCATGG, the switch fluorescence ratio was 0.928. With AGGAGCTCGT the switch fluorescence ratio was 1. AGGAGCTGAC showed a switch fluorescence ratio of 1.37. AGGAGCTTTT was tested, and the switch fluorescence ratio was 0.999. In the case of AGGAGGCCT, the switch fluorescence ratio is reported as 1. AGGAGTAAAT gave a switch fluorescence ratio of 1.02. For AGGAGTAGAT, the switch fluorescence ratio was 0.998. In the case of AGGAGTCCCG, the switch fluorescence ratio is reported as 1.06. With AGGAGTTCCT the switch fluorescence ratio was 0.982. Sequence AGGATATCCC has a switch fluorescence ratio of 1.01. Work on AGGATCAATG yielded a switch fluorescence ratio of 0.985. For AGGATCCCGT, the switch fluorescence ratio was 0.98. Sequence AGGATCGCGG has a switch fluorescence ratio of 1.06. For AGGATCGTAG, the switch fluorescence ratio was 0.993. Work on AGGATGGAAC yielded a switch fluorescence ratio of 0.994. AGGATGGGCC gave a switch fluorescence ratio of 0.982. Work on AGGATGTAGA yielded a switch fluorescence ratio of 1.04. In the case of AGGATGTAGT, the switch fluorescence ratio is reported as 0.99. AGGATGTGTG was tested, and the switch fluorescence ratio was 0.988. AGGATGTTGA was tested, and the switch fluorescence ratio was 1. AGGATTCCCG was tested, and the switch fluorescence ratio was 1.02. AGGATTTACG was tested, and the switch fluorescence ratio was 1.03. AGGCAACATG was tested, and the switch fluorescence ratio was 1.01. With AGGCACCGT the switch fluorescence ratio was 1.01. With AGGCACTTTG the switch fluorescence ratio was 1. AGGCAGACGT showed a switch fluorescence ratio of 0.993. Sequence AGGCAGCGGG has a switch fluorescence ratio of 0.997. AGGCAGGTTC showed a switch fluorescence ratio of 0.987. For AGGCCCGTAT, the switch fluorescence ratio was 1.11. Work on AGGCCCTCAG yielded a switch fluorescence ratio of 1.01. AGGCCGGAGG gave a switch fluorescence ratio of 1.03. For AGGCCGTGCT, the switch fluorescence ratio was 1. AGGCCTAGC was tested, and the switch fluorescence ratio was 0.978. AGGCCTCAAC showed a switch fluorescence ratio of 1.05. AGGCCTTCGC was tested, and the switch fluorescence ratio was 1.04. AGGCGCAAAA showed a switch fluorescence ratio of 1.05. AGGCGCCTGC showed a switch fluorescence ratio of 0.976. Sequence AGGCGCGCTA has a switch fluorescence ratio of 1.03. Sequence AGGCGCGGGG has a switch fluorescence ratio of 1.02. AGGCGGAATT gave a switch fluorescence ratio of 1.15. Work on AGGCGGACT yielded a switch fluorescence ratio of 0.994. For AGGCGGTGG, the switch fluorescence ratio was 0.95. AGGCGTAGAC gave a switch fluorescence ratio of 0.985. For AGGCTAAAAA, the switch fluorescence ratio was 1. In the case of AGGCTAAAAG, the switch fluorescence ratio is reported as 0.986. AGGCTAGACG showed a switch fluorescence ratio of 0.989. AGGCTATCAG showed a switch fluorescence ratio of 0.952. In the case of AGGCTCGTCC, the switch fluorescence ratio is reported as 1.01. Work on AGGCTCTAGG yielded a switch fluorescence ratio of 1.02. AGGCTGTGGT gave a switch fluorescence ratio of 0.998. In the case of AGGCTTGTCT, the switch fluorescence ratio is reported as 1.05. AGGGAAGATG gave a switch fluorescence ratio of 0.99. Sequence AGGGAAGGGT has a switch fluorescence ratio of 0.972. For AGGGAAGGTG, the switch fluorescence ratio was 1.32. AGGGACCCTG gave a switch fluorescence ratio of 0.997.
